Data as given in article PMC6919601, “Identification of Plasmodium dipeptidyl aminopeptidase allosteric inhibitors by high throughput screening” (PLoS ONE, 2019).
The whole screen tested about 110,000 compounds, of which about 230 (0.21%) showed an effect of 50% or more. The list shows a part of the results.

Biological target: DPAP1 (Plasmodium falciparum, UniProt Q8IIJ9)
Test: primary screen, percent inhibition; read by cleavage of a fluorogenic dipeptide substrate; higher = more effect of the substance
Design: species or system P. falciparum D10 trophozoite lysates; single well
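Also: 30 min substrate incubation versus DMSO and 10 µM JCP410 controls.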

Chain of DPAP1 (Q8IIJ9 whole entry, looked up): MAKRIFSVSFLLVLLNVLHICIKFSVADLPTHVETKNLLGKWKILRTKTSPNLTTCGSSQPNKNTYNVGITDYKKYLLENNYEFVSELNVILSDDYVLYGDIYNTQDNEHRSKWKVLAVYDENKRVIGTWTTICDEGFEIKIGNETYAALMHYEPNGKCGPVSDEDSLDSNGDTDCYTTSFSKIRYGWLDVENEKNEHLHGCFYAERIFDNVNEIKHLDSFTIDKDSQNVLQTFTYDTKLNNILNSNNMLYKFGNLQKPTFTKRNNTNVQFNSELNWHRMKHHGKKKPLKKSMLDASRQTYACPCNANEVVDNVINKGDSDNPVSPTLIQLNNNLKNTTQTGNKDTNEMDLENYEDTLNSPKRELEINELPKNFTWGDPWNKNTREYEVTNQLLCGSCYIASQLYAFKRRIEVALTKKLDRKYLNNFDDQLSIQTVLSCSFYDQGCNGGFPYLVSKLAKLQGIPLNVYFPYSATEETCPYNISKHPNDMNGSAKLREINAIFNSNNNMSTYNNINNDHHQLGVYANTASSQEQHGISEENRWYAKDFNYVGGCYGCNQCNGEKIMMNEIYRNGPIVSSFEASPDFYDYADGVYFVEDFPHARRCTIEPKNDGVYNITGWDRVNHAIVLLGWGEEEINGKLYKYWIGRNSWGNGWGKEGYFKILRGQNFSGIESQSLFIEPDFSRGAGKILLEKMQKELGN

| SMILES | % Inhibition @ 10 uM |
| --- | --- |
| COc1ccc(Cn2c(C(=O)O)c(CNCc3ccccc3C)c3ccc(OC)cc32)cc1 | 4.41% |
| CC1CCC(NC(=O)c2csc3c2CCC(C)C3)CC1 (centres unmarked) | -5.05% |
| CC(NC(=O)c1ccccc1)c1nc2ccccc2[nH]1 (centres unmarked) | 3.49% |
| Cc1cccn2cc(CCN3C(=O)c4ccccc4C3=O)nc12 | 0.161% |
| Cc1ccc(-n2nc(C)c(/C=N/c3ccc4[nH]c(O)nc4c3)c2O)cc1C | -0.736% |
| Cc1ccsc1-c1ncnn1-c1cccc(Cl)c1C | -0.0953% |
| CN(CC(=O)N1CCCCCC1)S(=O)(=O)c1cccc2cccnc12 | -2.42% |
| O=C(Nc1ccccc1NC(=O)c1ccncc1)c1ccncc1 | 0.13% |
| CCOc1ccc(CCNC(=O)C2CC(=O)OC2c2ccc(OC)c(OC)c2)cc1 (centres unmarked) | -6.52% |
| Cc1ccc(N(CC(=O)NCc2ccncc2)S(=O)(=O)c2ccc(F)cc2)cc1 | -0.67% |
| COc1ccc(NC(=O)C2=C(C)Nc3nc(-c4ccccc4)nn3C2c2ccncc2)cc1 (centres unmarked) | -7.17% |
| O=C(NCc1ccc2c(c1)OCO2)C1CCCN(S(=O)(=O)c2cccnc2)C1 (centres unmarked) | 4.01% |
| COc1ccc2[nH]c3c(=O)n(CCCC(=O)NCC4CCCO4)c(=S)[nH]c3c2c1 (centres unmarked) | -7.65% |
| CCOc1cc(C2C3=C(O)CCCC3=NC(C)=C2C(=O)OC)ccc1O (centres unmarked) | 5.7% |
| Cc1ccccc1-n1c(O)cc(=O)[nH]c1=S | 2.41% |
| CCOC(=O)NCc1nc2nc(C)cc(C(F)(F)F)n2n1 | 2.84% |
| COc1cc2c(cc1OC)CN(Cc1ccc(Br)o1)CC2 | 3.01% |
| CC(C)Oc1ccc(C(=O)N(Cc2ccc(Cl)cc2)Cc2ccco2)cc1 | -0.45% |
| O=C(CCN1C(=O)S/C(=C\c2ccc(Cl)cc2)C1=O)N1CCOCC1 | 4.1% |
| CS(=O)(=O)C1=NN2C(=N)/C(=C\c3cccc4ccccc34)C(=O)N=C2S1 | -1.58% |
| COC(=O)C1=C(O)/C(=C/c2cccc(OC)c2O)N=C1C | 0.131% |
| O=C(Nc1cccnc1)c1cc(-c2ccc(O)cc2)on1 | 0.723% |
| O=C(NCCc1ccccc1)c1cc(F)c(F)cc1Cl | -5.36% |
| O=C(Nc1ccc(F)c(Cl)c1)c1cc2n(n1)C(C(F)(F)F)CC(c1ccco1)N2 (centres unmarked) | -4.16% |
| CCCCC1(C)OC(=O)C(=Cc2ccc(SC)cc2)C(=O)O1 (centres unmarked) | 2.84% |

| SMILES | % Inhibition @ 10 uM |
| --- | --- |
| Fc1ccc(N2N=C(c3cccs3)CC2c2ccccc2C(F)(F)F)cc1 (centres unmarked) | -1.59% |
| COc1ccccc1CC(=O)Nc1ccc2c(c1)C(=O)NC2=O | 0.993% |
| N#Cc1cc2c(=O)n3ccccc3nc2n(Cc2ccco2)c1=O | 2.73% |
| CCn1c(=N)n(CCc2ccccc2)c2ccccc21 | -6.65% |
| CC1(C)Cc2c(sc(NC(=O)c3ccc(F)cc3)c2C#N)C(C)(C)N1 | 3.59% |
| CCC(Oc1ccccc1)C(=O)NC(C)C1CC2CCC1C2 (centres unmarked) | -3.97% |
| O=C(Nc1ccc2ccccc2c1)c1ccc(Cl)s1 | 2.7% |
| O=C(O)CNS(=O)(=O)c1ccc(C(=O)O)cc1 | 0.565% |
| O=C(O)c1ccc(CNCc2cccc(OCc3ccccc3)c2)cc1 | 1.42% |
| C=CCc1cccc2cc(C(=O)OCC)c(=O)oc12 | -2.51% |
| Cc1ccc(NC(=O)COc2ccc(Cl)cc2)c(C)c1 | -3.94% |
| Cc1ccc(Nc2nc(Cl)nc(NCc3ccccc3)n2)cc1 | -6.52% |
| Cc1ccccc1C1=N/C(=C2/OC(=O)c3ccccc32)C(=O)O1 | -2.27% |
| COc1ccc(C(=O)C2=C(O)C(=O)N(c3cc(C)on3)C2c2ccc(C(C)(C)C)cc2)cc1OC (centres unmarked) | 1.05% |
| Cn1nc(-c2ccccc2F)c2cc(C(=O)NCc3ccc4c(c3)OCO4)sc21 | 0.317% |
| CCN(Cc1ccccc1)C(=O)c1cccc([N+](=O)[O-])c1C | -1.22% |
| CC1=NN(C(=O)c2ccc(Cn3nc(C)cc3C)o2)C(O)(C(F)(F)F)C1 (centres unmarked) | 2.08% |
| CC(C)C[C@H](NC(=O)c1ccccc1)C(=O)NC1CCN(Cc2ccccc2)C1 (some centres unmarked) | -4.82% |
| COc1ccc(C2CC(c3c(O)cc(C)oc3=O)=Nc3ccccc3S2)cc1O (centres unmarked) | 3.31% |
| Cc1cc(C)c2oc(C(=O)NCc3ccccc3)cc(=O)c2c1 | -6.98% |
| Cc1cc(NS(=O)(=O)c2ccc(NC(=O)C(C)Oc3ccc(F)cc3)cc2)nc(C)n1 (centres unmarked) | -5.14% |
| Cc1nc(C)c(-c2ccc(SCC(=O)NC3CCCC3)nn2)s1 | -2.26% |
| CCc1c(C)nc(N)nc1OCC(F)(F)C(F)F | -3.27% |
| Fc1ccc(N2CCN(Cc3ccc(Br)o3)CC2)cc1 | -1.92% |
| CCN(CC)S(=O)(=O)c1ccc(C(=O)OCCNC2=NS(=O)(=O)c3ccccc32)cc1 | -2.14% |

| SMILES | % Inhibition @ 10 uM |
| --- | --- |
| COc1ccc2c(c1)nc(SCC(C)O)n2C (centres unmarked) | 15.6% |
| O=C(O)CCc1nc2cccnc2n1Cc1cccs1 | 4.74% |
| Cc1ccccc1Cn1cc(NC(=O)c2cc(C3CC3)on2)cn1 | -4.43% |
| O=C(NCc1ccco1)c1cccc(S(=O)(=O)N2CC(c3ccccc3)CC2=O)c1 (centres unmarked) | -2.63% |
| CC1CCc2c(sc(NC(=O)CCc3ccccc3)c2C(N)=O)C1 (centres unmarked) | -7.9% |
| COc1ccc(C(=O)N2CCN(c3cc(C)cc(C)c3)CC2)cc1OC | 5.03% |
| CCN(CC)C(=O)C1CCCN(Cc2ccc(Br)s2)C1 (centres unmarked) | -2.56% |
| Cc1ccc(NC(=O)/C=C/c2cccc([N+](=O)[O-])c2)c(Br)c1 | -2.54% |
| COC(=O)c1ccc(-n2c(C)cc(/C=C3\NC(=O)NC3=O)c2C)cc1 | 4.66% |
| COc1ccc(CNS(=O)(=O)c2ccc(-c3cc(C(F)(F)F)no3)s2)cc1 | 3.57% |
| COc1ccc(NC(=O)CN(c2ccc(Br)cc2)S(C)(=O)=O)cc1 | -1.43% |
| Cc1ccc(C(c2c(C)n(C)n(-c3ccccc3)c2=O)c2c(C)n(C)n(-c3ccccc3)c2=O)cc1 | 0.467% |
| COc1ccc(-n2ncc(C(=O)NCc3ccccn3)c2C2CCN(C(=O)OC(C)(C)C)CC2)cc1 | -6.76% |
| Cc1oc(-c2cccs2)nc1CSc1nc2cccnc2[nH]1 | 0.95% |
| Cc1nc2c(c(C)nn2-c2ccccc2)c(C)c1CCC(=O)N1CC(C)CC(C)C1 (centres unmarked) | 2.37% |
| O=C(NCc1ccncc1)C1CC1c1ccccc1 (centres unmarked) | -2.84% |
| CC(C)C[C@H](NC(=O)N1CCN(c2ncc(C(F)(F)F)cc2Cl)CC1)C(=O)NCC#N | -0.207% |
| COc1ccc2c(c1)CCC1C2=CCN2C(=O)CCC12 (centres unmarked) | 4.28% |
| NC1=NC(c2cccc(Cl)c2)N(CCc2ccc(F)cc2)C(N)=N1 (centres unmarked) | -4.81% |
| CCN(CC)C(=O)C1CCCN(Cc2ccc(C(C)C)cc2)C1 (centres unmarked) | -1.07% |
| COC(=O)C1=C(C)N(CCc2ccc(OC)cc2)C(=O)/C1=C\c1ccc(C(=O)OC)cc1 | -6.87% |
| CN(C)CCN(Cc1ccccc1)Cc1ccc(C(F)(F)F)cc1 | -5.2% |
| Cc1c(C(=O)N2CCC(C)CC2)oc2ccc(S(=O)(=O)N3CCCCCC3)cc12 | 0.287% |
| C=CCSC1=C(C#N)C(c2ccccc2Cl)C(C(=O)Nc2ccccc2C)=C(C)N1 (centres unmarked) | 5.29% |
| CCN(CC)CCNC(=O)C1c2cc(OC)c(OC)cc2C(=O)N(C)C1c1cccs1 (centres unmarked) | 9.56% |

| SMILES | % Inhibition @ 10 uM |
| --- | --- |
| Cc1c(-c2nc(O)c3ccccc3n2)sc2nc(-c3ccccc3)nc(N)c12 | 3.06% |
| CCCC(=O)Nc1ccc(S(=O)(=O)N2CCOCC2)cc1 | -2.78% |
| Cc1ccc2c(c1)-c1onc(C(=O)N3CCN(C4CCCCC4)CC3)c1CO2 | 10.9% |
| O=C(Nc1ccc(F)cc1F)C1CCN(C(=O)c2ccc(-c3ccccc3)cc2)CC1 | 5.73% |
| Fc1ccccc1/C=C/c1nn2c(-c3cccnc3)nnc2s1 | -1.31% |
| Cc1cccn2c(=O)c3cc(C(=O)NCC(C)C)n(C)c3nc12 | -1.42% |
| CCOc1ccc(C2C(=O)N(C3CCCCC3)CC(=O)N2Cc2ccccc2Cl)cc1OC (centres unmarked) | -2.14% |
| CCOc1ccccc1C(=O)NC1CCC(NC(=O)c2ccccc2OCC)CC1 (centres unmarked) | 0.528% |
| O=C(NCc1ccc2c(c1)OCO2)c1ccc(CSCc2ccc(Cl)cc2)o1 | 5.23% |
| O=C(Nc1nc(-c2ccccc2)cs1)c1ccc2c(c1)OCO2 | 6.5% |
| COc1ccc2c(c1)c1ncn(CCCN3CCN(C)CC3)c(=O)c1n2C | -7.27% |
| COc1ccccc1NC(=O)c1ccc(COc2ccccc2Br)o1 | -1.04% |
| CN(Cc1ccc(-c2ccccc2)cc1)CC(O)c1ccccc1 (centres unmarked) | 3.48% |
| COc1ccc(C2CC(C(F)(F)F)n3nc(C(=O)NCc4cnn(C)c4C)c(Cl)c3N2)cc1 (centres unmarked) | -0.988% |
| CC1(NC(=S)NC2CCS(=O)(=O)C2)CCS(=O)(=O)C1 (centres unmarked) | 2.56% |
| COc1ccccc1C/N=C/C1=C(O)c2sccc2N(Cc2ccccc2)S1(=O)=O | 2.33% |
| CCOC(=O)c1nc(CS(=O)(=O)c2ccccc2)no1 | 3.68% |
| Cc1ccc2nc(N3CCOCC3)c3nncn3c2c1 | -0.692% |
| CCOC(=O)N1CCC(N2CCN(Cc3ccccc3)CC2)CC1 | -1.82% |
| CCN(CC)c1ccc(C2C3=C(O)CCCC3=NC(C)=C2C(=O)Nc2cc(C)ccn2)cc1 (centres unmarked) | -1.07% |
| COCCN1C(=O)C(O)=C(C(=O)c2ccco2)C1c1cccc(OC)c1 (centres unmarked) | -0.891% |
| O=C1C2C3CCC(C3)C2C(=O)N1c1ccccc1Cl (centres unmarked) | -7% |
| Cc1nc2nc(CNC(=O)OC(C)(C)C)nn2c(C)c1CCC(=O)NCCCN1CCCC1=O | -2.17% |
